# The other results are listed elsewhere or left out.
# B1: PX9937F-bfa-516-16-516 (Bacteroides fragilis) (protein)
# chain: LDIDPTSSIADSNYWKTEAQFSTFNVGLHALLRECSFNFFLLGEPRADIYGDVPFGGEATQGMERLPFNTINKENTGISNFAGMYKVINQINLMIAKTKETTVLSEAGKNYYLGEAYGMRAYLYFHLLRSWGDVILYLDYTNGASLDLSNLSKAASPAEEVMKQIKEDITASEKGFGSDYSFKYGRYYWSMAATQMLKGEVYLWSGRQMGGGTADYTTAKTALQSIVSNANVSLQDDFSKVFAYNNKDNSEIIFSIRNAKDEYNMWDDRFRQNLVPQQAYMTSTYCNKEGVSFKDLPEGQLNGLIRLQIRYDLYNKAFRDGDTRKDASMTAVYQKQQDGTVKYIAPFCNKYQGVLLDGASQRSFLNDYPIYRYADCLLLLAEAKALLGEDPTAEINQVRERAYGKEFFEANKATLAYPNDKGDFYTDNKYMSGDEDPLEAILKERMREFMFEGKRWYDLRLLGADYVTKRTSAVATRLLWPINESVLTDNPALKQTPGYQN
# Legend:
# Experiment in all cases: glycan array binding signal (z-score within array); higher = stronger binding
# Conditions in all cases: glycan notation: IUPAC condensed, linker removed
# [1] = molecular target: Gal(b1-4)GlcNAc(b1-3)Gal(b1-4)GlcNAc(b1-3)Gal(b1-4)GlcNAc(b1-2)Man(a1-3)[Gal(b1-4)GlcNAc(b1-3)Gal(b1-4)GlcNAc(b1-3)Gal(b1-4)GlcNAc(b1-2)Man(a1-6)]Man(b1-4)GlcNAc(b1-4)GlcNAc
# In short: (§1)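 Glycan array data were curated from 3228 arrays in the Consortium for Functional Glycomics database and kept only where the protein sequence was available. Glycan names were converted to IUPAC-condensed notation, and columns mapping to the same glycan were averaged. The binding signal is a within-array Z-score, averaged across arrays of the same protein sequence at different concentrations or buffers and across linkers. Negative Z-scores can be read as non-binding.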
# [2] = molecular target: Gal(b1-4)GlcNAc(b1-3)Gal(b1-4)GlcNAc(b1-3)Gal(b1-4)GlcNAc(b1-2)Man(a1-3)[Gal(b1-4)GlcNAc(b1-3)Gal(b1-4)GlcNAc(b1-3)Gal(b1-4)GlcNAc(b1-2)Man(a1-6)]Man(b1-4)GlcNAc(b1-4)[Fuc(a1-6)]GlcNAc
# In short: as §1
# [3] = molecular target: Gal(b1-4)GlcNAc(b1-3)Gal(b1-4)GlcNAc(b1-3)Gal(b1-4)GlcNAc(b1-2)[Gal(b1-4)GlcNAc(b1-3)Gal(b1-4)GlcNAc(b1-3)Gal(b1-4)GlcNAc(b1-6)]Man(a1-6)[Gal(b1-4)GlcNAc(b1-3)Gal(b1-4)GlcNAc(b1-3)Gal(b1-4)GlcNAc(b1-2)Man(a1-3)]Man(b1-4)GlcNAc(b1-4)[Fuc(a1-6)]GlcNAc
# In short: as §1
# [4] = molecular target: Gal(b1-4)GlcNAc(b1-3)Gal(b1-4)GlcNAc(b1-3)Gal(b1-4)GlcNAc(b1-3)Gal(b1-4)GlcNAc(b1-2)Man(a1-3)[Gal(b1-4)GlcNAc(b1-3)Gal(b1-4)GlcNAc(b1-3)Gal(b1-4)GlcNAc(b1-3)Gal(b1-4)GlcNAc(b1-2)Man(a1-6)]Man(b1-4)GlcNAc(b1-4)GlcNAc
# In short: as §1
# [5] = molecular target: Gal(b1-4)GlcNAc(b1-3)Gal(b1-4)GlcNAc(b1-3)Gal(b1-4)GlcNAc(b1-3)Gal(b1-4)GlcNAc(b1-2)Man(a1-3)[Gal(b1-4)GlcNAc(b1-3)Gal(b1-4)GlcNAc(b1-3)Gal(b1-4)GlcNAc(b1-3)Gal(b1-4)GlcNAc(b1-2)Man(a1-6)]Man(b1-4)GlcNAc(b1-4)[Fuc(a1-6)]GlcNAc
# In short: as §1
# [6] = molecular target: Gal(b1-4)GlcNAc(b1-3)Gal(b1-4)GlcNAc(b1-3)Gal(b1-4)GlcNAc(b1-3)Gal(b1-4)GlcNAc(b1-2)[Gal(b1-4)GlcNAc(b1-3)Gal(b1-4)GlcNAc(b1-3)Gal(b1-4)GlcNAc(b1-3)Gal(b1-4)GlcNAc(b1-6)]Man(a1-6)[Gal(b1-4)GlcNAc(b1-3)Gal(b1-4)GlcNAc(b1-3)Gal(b1-4)GlcNAc(b1-3)Gal(b1-4)GlcNAc(b1-2)Man(a1-3)]Man(b1-4)GlcNAc(b1-4)[Fuc(a1-6)]GlcNAc
# In short: as §1
# [7] = molecular target: Gal(b1-4)GlcNAc(b1-3)Gal(b1-4)GlcNAc(b1-3)Gal(b1-4)GlcNAc(b1-3)Gal(b1-4)GlcNAc(b1-3)Gal(b1-4)GlcNAc(b1-2)Man(a1-3)[Gal(b1-4)GlcNAc(b1-3)Gal(b1-4)GlcNAc(b1-3)Gal(b1-4)GlcNAc(b1-3)Gal(b1-4)GlcNAc(b1-3)Gal(b1-4)GlcNAc(b1-2)Man(a1-6)]Man(b1-4)GlcNAc(b1-4)GlcNAc
# In short: as §1
# [8] = molecular target: Gal(b1-4)GlcNAc(b1-3)Gal(b1-4)GlcNAc(b1-3)Gal(b1-4)GlcNAc(b1-3)Gal(b1-4)GlcNAc(b1-3)Gal(b1-4)GlcNAc(b1-2)Man(a1-3)[Gal(b1-4)GlcNAc(b1-3)Gal(b1-4)GlcNAc(b1-3)Gal(b1-4)GlcNAc(b1-3)Gal(b1-4)GlcNAc(b1-3)Gal(b1-4)GlcNAc(b1-2)Man(a1-6)]Man(b1-4)GlcNAc(b1-4)[Fuc(a1-6)]GlcNAc
# In short: as §1
# [9] = molecular target: Gal(b1-4)GlcNAc(b1-3)Gal(b1-4)GlcNAc(b1-3)Gal(b1-4)GlcNAc(b1-3)Gal(b1-4)GlcNAc(b1-3)Gal(b1-4)GlcNAc(b1-2)[Gal(b1-4)GlcNAc(b1-3)Gal(b1-4)GlcNAc(b1-3)Gal(b1-4)GlcNAc(b1-3)Gal(b1-4)GlcNAc(b1-3)Gal(b1-4)GlcNAc(b1-6)]Man(a1-6)[Gal(b1-4)GlcNAc(b1-3)Gal(b1-4)GlcNAc(b1-3)Gal(b1-4)GlcNAc(b1-3)Gal(b1-4)GlcNAc(b1-3)Gal(b1-4)GlcNAc(b1-2)Man(a1-3)]Man(b1-4)GlcNAc(b1-4)[Fuc(a1-6)]GlcNAc
# In short: as §1
# [10] = molecular target: Gal(b1-4)GlcNAc(b1-3)Gal(b1-4)GlcNAc(b1-3)Gal(b1-4)GlcNAc(b1-3)Gal(b1-4)GlcNAc(b1-3)Gal(b1-4)GlcNAc(b1-3)Gal(b1-4)GlcNAc(b1-2)Man(a1-3)[Gal(b1-4)GlcNAc(b1-3)Gal(b1-4)GlcNAc(b1-3)Gal(b1-4)GlcNAc(b1-3)Gal(b1-4)GlcNAc(b1-3)Gal(b1-4)GlcNAc(b1-3)Gal(b1-4)GlcNAc(b1-2)Man(a1-6)]Man(b1-4)GlcNAc(b1-4)GlcNAc
# In short: as §1
# [11] = molecular target: Gal(b1-4)GlcNAc(b1-3)Gal(b1-4)GlcNAc(b1-3)GalNAc
# In short: as §1
# [12] = molecular target: Gal(b1-4)GlcNAc(b1-3)Gal(b1-4)GlcNAc(b1-3)[Gal(b1-4)GlcNAc(b1-3)Gal(b1-4)GlcNAc(b1-6)]GalNAc
# In short: as §1
# [13] = molecular target: Gal(b1-4)GlcNAc(b1-3)Gal(b1-4)GlcNAc(b1-6)[Gal(b1-3)]GalNAc
# In short: as §1
# [14] = molecular target: Gal(b1-4)GlcNAc(b1-3)Gal(b1-4)[Fuc(a1-3)]GlcNAc(b1-3)Gal(b1-4)[Fuc(a1-3)]GlcNAc
# In short: as §1
# [15] = molecular target: Gal(b1-4)GlcNAc(b1-3)GalNAc
# In short: as §1
# [16] = molecular target: Gal(b1-4)GlcNAc(b1-3)[Fuc(a1-3)GlcNAc(b1-6)]Gal(b1-4)Glc
# In short: as §1
# [17] = molecular target: Gal(b1-4)GlcNAc(b1-3)[Gal(b1-4)GlcNAc(b1-6)]Gal(b1-4)GlcNAc
# In short: as §1
# [18] = molecular target: Gal(b1-4)GlcNAc(b1-3)[GlcNAc(b1-6)]Gal(b1-4)GlcNAc
# In short: as §1
# [19] = molecular target: Gal(b1-4)GlcNAc(b1-6)Gal(b1-4)GlcNAc
# In short: as §1
binder,measurement,setting,value
B1,glycan array binding signal (z-score),[1],0.12
same,glycan array binding signal (z-score),[2],-0.286
same,glycan array binding signal (z-score),[3],4.38
same,glycan array binding signal (z-score),[4],-0.062
same,glycan array binding signal (z-score),[5],0.562
same,glycan array binding signal (z-score),[6],3.95
same,glycan array binding signal (z-score),[7],0.069
same,glycan array binding signal (z-score),[8],-0.02
same,glycan array binding signal (z-score),[9],20.8
same,glycan array binding signal (z-score),[10],0.37
same,glycan array binding signal (z-score),[11],0.056
same,glycan array binding signal (z-score),[12],-0.271
same,glycan array binding signal (z-score),[13],-0.048
same,glycan array binding signal (z-score),[14],-0.12
same,glycan array binding signal (z-score),[15],-0.253
same,glycan array binding signal (z-score),[16],0.349
same,glycan array binding signal (z-score),[17],-0.235
same,glycan array binding signal (z-score),[18],-0.248
same,glycan array binding signal (z-score),[19],-0.355

# Source: the supplement of paper PMC8728848
